Reference: patent US5831002A, “Antitumor peptides” (BASF Aktiengesellschaft, priority 1995, dated 1998)
Part of at least one peptide drawing is inferred or uncertain, most often the ends. *1 amine or outer side, *2 acyl side, *3 side chain or, on linkers, in order; H or OH if unused. Where a SMILES comes first, the peptide text is derived from it. [ ]: non-standard residue; d: D form. The star is where a group is joined. X3 = CC(C)[C@@H](C(=O)[*:2])N(C1CC1)[*:1]; NMe2Phe = CN(C)[C@@H](Cc1ccccc1)C(=O)*; NMe2Val = CC(C)[C@@H](C(=O)*)N(C)C; X2 = CCCCN(CCCC)[C@H](C(=O)*)C(C)C; NMeTle = CN[C@H](C(=O)O)C(C)(C)C; X1 = CN(C)[C@H](C(=O)*)C(C)(C)C; NEtVal = CCN[C@H](C(=O)O)C(C)C; NMeV = CN[C@H](C(=O)O)C(C)C

Key:
[1] = tested on: CX-I; colon carcinoma, human; assay: crystal violet assay for cytotoxicity; format: cell-based; details: CX-I cells, 72 h incubation, crystal violet staining
[2] = tested on: human breast tumors (MX-1); assay: MX-1 xenograft model in nude mice; format: in vivo; details: MX-1 model, i.v.
[3] = tested on: P388 leukemia, OVCAR ovarian carcinoma, LOX human melanoma; assay: additional in vivo models (other models)
[4] = tested on: tumor cells such as the HT-29 colon carcinoma or LX-1 lung tumor; assay: microculture tetrazolium assay (MTT) cytotoxicity; format: cell-based; details: 48 hours incubation, cell line of the tabulated values not stated (HT-29 or LX-1 named as examples)

Structure (SMILES)	IC50 [1] [nM]	IC50 [4] [nM]	other results
CC(C)[C@H](NC(=O)[C@@H]1CCCN1C(=O)[C@@H]1CCCN1C(=O)[C@H](C(C)C)N(C)C(=O)[C@@H](NC(=O)[C@H](C(C)C)N(C)C)C(C)C)C(=O)N[C@@H](Cc1ccccc1)C(N)=O [Example 1, N,N-Dimethyl-Val-Val-N-methyl-Val-Pro-Pro-Val-Phe-NH2] (NMe2Val-V[NMeV]PPVF-NH2)	90		
CC(C)[C@H](NC(=O)[C@H](C(C)C)N(C)C)C(=O)N(C)[C@H](C(=O)N1CCC[C@H]1C(=O)N[C@@H](Cc1ccccc1)c1nccs1)C(C)C [Example 2, N,N-Dimethyl-Val-Val-N-Me-Val-Pro-{1-[thiazol-(2)-yl]-2-phenyl}-ethylamide]	40		ACTIVITY [2]: +; COMMENTS (effect on MX-1 tumors) [2]: tumor growth delay
CN[C@H](C(=O)N[C@H](C(=O)N(C)[C@H](C(=O)N1CCC[C@H]1C(=O)N1CCC[C@H]1C(=O)N[C@H](C(=O)N[C@@H](Cc1ccccc1)C(N)=O)C(C)C)C(C)C)C(C)C)C(C)C [Example 31, Xan Val Xan Pro Pro Val Phe NH2] (H-[NMeV]V[NMeV]PPVF-NH2)	10000		
CC(C)[C@H](NC(=O)[C@H](C(C)C)N(C)C)C(=O)N(C)[C@H](C(=O)N1CCC[C@H]1C(=O)N1CCC[C@H]1C(N)=O)C(C)C [Example 50, Xaa Val Xan Pro Pro NH2] (NMe2Val-V[NMeV]PP-NH2)	200		ACTIVITY [2]: +++ (cures); COMMENTS (effect on MX-1 tumors) [2]: cures; activity in other models [3]: active
CC(C)[C@H](NC(=O)[C@H](C(C)C)N(C)C)C(=O)N(C)[C@H](C(=O)N1CCC[C@H]1C(=O)N1CCC[C@H]1C(=O)O)C(C)C [Example 51, Xaa Val Xan Pro Pro] (NMe2Val-V[NMeV]PP-OH)	500		
CCCCN(CCCC)[C@H](C(=O)N[C@H](C(=O)N(C)[C@H](C(=O)N1CCC[C@H]1C(=O)N1CCC[C@H]1C(N)=O)C(C)C)C(C)C)C(C)C [Example 62, Xax Val Xan Pro Pro NH2] (X2-V[NMeV]PP-NH2)		30000	
CC(C)[C@H](NC(=O)[C@@H](N(C)C)C(C)(C)C)C(=O)N(C)[C@H](C(=O)N1CCC[C@H]1C(=O)N1CCC[C@H]1C(N)=O)C(C)C [Example 65, Xat Val Xan Pro Pro NH2] (X1-V[NMeV]PP-NH2)		400	
CC(C)[C@H](NC1CC1)C(=O)N[C@H](C(=O)N(C)[C@H](C(=O)N1CCC[C@H]1C(=O)N1CCC[C@H]1C(N)=O)C(C)C)C(C)C [Example 146, Xcb Val Xan Pro Pro NH2] (H-[X3]V[NMeV]PP-NH2)		20000	
CC(C)[C@H](NC(=O)[C@H](Cc1ccccc1)N(C)C)C(=O)N(C)[C@H](C(=O)N1CCC[C@H]1C(=O)N1CCC[C@H]1C(N)=O)C(C)C [Example 157, Xho Val Xan Pro Pro NH2] (NMe2Phe-V[NMeV]PP-NH2)		200000	
CC(C)[C@H](NC(=O)[C@H](C(C)C)N(C)C)C(=O)N(C)[C@H](C(=O)N1CCC[C@H]1C(=O)N1CCC[C@H]1C(N)=O)C(C)(C)C [Example 347, Xaa Val Xhf Pro Pro NH2] (NMe2Val-V[NMeTle]PP-NH2)		300	
CCN(C(=O)[C@@H](NC(=O)[C@H](C(C)C)N(C)C)C(C)C)[C@H](C(=O)N1CCC[C@H]1C(=O)N1CCC[C@H]1C(N)=O)C(C)C [Example 349, Xaa Val Xhh Pro Pro NH2] (NMe2Val-V[NEtVal]PP-NH2)		600	
